Results: PMC4336329 (PLoS ONE, 2015)
Among all 310,000 compounds or so, about 2,200 (0.71%) showed an effect of 50% or more. The effect is printed as a negative number. The list shows a part of the results.

Target: human ether-à-go-go-related gene (hERG) potassium channel (human, UniProt Q12809)
Assay: primary screen, population patch clamp on CHO cells stably expressing hERG

human ether-à-go-go-related gene (hERG) potassium channel, sequence (Q12809 whole entry, looked up): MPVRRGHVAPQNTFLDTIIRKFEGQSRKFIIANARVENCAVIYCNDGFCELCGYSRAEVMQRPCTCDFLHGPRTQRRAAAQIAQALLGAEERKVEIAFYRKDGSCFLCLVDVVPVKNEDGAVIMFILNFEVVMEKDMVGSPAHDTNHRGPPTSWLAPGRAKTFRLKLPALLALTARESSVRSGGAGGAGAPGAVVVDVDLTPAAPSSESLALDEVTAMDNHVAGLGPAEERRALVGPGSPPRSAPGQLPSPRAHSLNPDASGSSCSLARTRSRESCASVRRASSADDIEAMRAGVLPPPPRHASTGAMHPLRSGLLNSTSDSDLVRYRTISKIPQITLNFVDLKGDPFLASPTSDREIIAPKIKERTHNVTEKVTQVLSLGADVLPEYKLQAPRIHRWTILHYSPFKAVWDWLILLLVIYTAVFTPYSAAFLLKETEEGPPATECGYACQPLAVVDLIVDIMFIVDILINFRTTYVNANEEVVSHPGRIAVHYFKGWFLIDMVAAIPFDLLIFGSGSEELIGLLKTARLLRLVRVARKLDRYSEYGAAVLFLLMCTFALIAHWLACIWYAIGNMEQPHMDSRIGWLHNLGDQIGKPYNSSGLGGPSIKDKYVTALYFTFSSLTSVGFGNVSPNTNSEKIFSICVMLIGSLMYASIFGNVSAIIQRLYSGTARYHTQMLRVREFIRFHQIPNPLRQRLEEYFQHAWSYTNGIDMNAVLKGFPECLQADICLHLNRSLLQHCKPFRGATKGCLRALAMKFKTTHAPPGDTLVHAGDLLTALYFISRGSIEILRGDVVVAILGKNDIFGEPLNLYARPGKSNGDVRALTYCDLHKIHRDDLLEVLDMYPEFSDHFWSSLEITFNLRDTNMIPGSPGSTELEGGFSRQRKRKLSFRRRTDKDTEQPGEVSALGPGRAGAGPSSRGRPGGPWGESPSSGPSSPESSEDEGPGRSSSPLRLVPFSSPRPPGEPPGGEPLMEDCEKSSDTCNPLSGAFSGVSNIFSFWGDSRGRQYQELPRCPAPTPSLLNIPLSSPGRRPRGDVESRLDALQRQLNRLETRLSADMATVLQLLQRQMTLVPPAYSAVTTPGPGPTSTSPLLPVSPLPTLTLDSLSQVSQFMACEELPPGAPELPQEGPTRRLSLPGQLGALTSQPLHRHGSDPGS

| Compound | hERG current change (%, negative = inhibition) at 1uM |
| --- | --- |
| O=C(Nc1cccs1)OCCN1CCN(Cc2ccccc2)CCC1=O | 4.05% |
| CCOc1ccc(CN(C(=O)c2oc3ccccc3c2C)C2CCS(=O)(=O)C2)cc1 (centres unmarked) | -6.11% |
| COC1=CC(=O)OC(/C=C/c2ccccc2)C1 (centres unmarked) | 0.591% |
| Cc1sc2ccccc2[n+]1CC(=O)c1ccccc1.[Br-] | 18.4% |
| CC(C)(C)c1cn(-c2ccc(F)cc2)c(=S)[nH]1 | -5.57% |
| CCN(CC)C(=O)Oc1ccc2oc(=O)cc(-c3cc4cccc(OC)c4o3)c2c1 | 16% |
| CCOc1ccccc1NC(=O)NCc1ccco1 | 11% |
| COc1ccc(Cl)cc1C(=O)NCCCn1ccnc1 | 12.2% |
| COc1cc(CN2CCN(Cc3c[nH]c4ccccc34)CC2CCO)cc(OC)c1 (centres unmarked) | 6.2% |
| Cc1ccc(C(=O)CSc2nnc(COc3cccc(C)c3)o2)cc1 | 6.57% |
| N/C(=N/OC(=O)c1cccc([N+](=O)[O-])c1)c1cccc([N+](=O)[O-])c1 | 9.82% |
| COc1ccc(C(C)NC(=O)Nc2ccc(C(C)=O)cc2)cc1OC (centres unmarked) | 10.8% |
| CCNS(=O)(=O)c1ccc(NC(=O)c2ccc(Cn3cc([N+](=O)[O-])cn3)o2)cc1 | -5.91% |
| CC(O)C1C(=O)OC2(C)CC(C)(C)NC(=S)N12 (centres unmarked) | 4.14% |
| Cc1cc(NC(=O)c2ccc(Cl)cc2)cc(C)c1OCC(=O)N1CCOCC1 | -0.639% |
| CCOc1cc(CNCCCN2CCOCC2)ccc1OCC(=O)Nc1cccc2ccccc12.Cl | 6.79% |
| CCc1nc2ccccc2c(C(=O)O)c1C | 4.07% |
| CN(C)S(=O)(=O)c1ccc(C(=O)Nc2cccnc2)cc1 | -19.3% |
| Cn1c(=O)[nH]c(=O)c2c1nc(SCCN1CCCCC1)n2Cc1ccccc1 | -81.6% |
| O=C(NC(=S)Nc1ccc(Cl)c(C(=O)O)c1)c1ccco1 | 4.24% |
| CCOc1ccc(CC2NCCc3cc(OCC)c(OCC)cc32)cc1OCC (centres unmarked) | 5.35% |
| N#C/C(=C\c1cccnc1)C(=O)Nc1ccc(S(N)(=O)=O)cc1 | 0.87% |
| N#Cc1ccc(CSc2nnc(-c3ccccn3)n2-c2ccc(Cl)cc2)cc1 | -4.32% |

| Compound | hERG current change (%, negative = inhibition) at 1uM |
| --- | --- |
| Cc1ccc(N2CC(C(=O)Nc3ccc(S(=O)(=O)NCC4CCCO4)cc3)CC2=O)cc1 (centres unmarked) | 11.4% |
| O=C(O)Cc1sc(-c2ccc(Cl)cc2)nc1-c1ccccc1 | 1.43% |
| CCCCN(CCO)CCCC | 8.17% |
| Fc1ccc(-n2cnnn2)c(F)c1 | 9.59% |
| N#Cc1c(NC(=O)c2nc3ncccn3n2)sc2c1CCCCC2 | 8.49% |
| CN(Cc1cnn(C)c1)C(=O)C1CCC(=O)N(Cc2ccc(Cl)cc2)C1 (centres unmarked) | 14.4% |
| N#C/C(=C\c1ccc(O)c(Br)c1)C(=O)N1CCCCC1 | 11% |
| N#CCCCn1c(-c2ccccc2)noc1=O | 2.95% |
| Cc1c(C(=O)N2CCOCC2)c(S(=O)(=O)Nc2ccc(F)cc2)c(C)n1C | 15.7% |
| Cc1cc2nc3s/c(=C/c4ccc(-c5ccccc5C(=O)O)o4)c(=O)n3c2cc1C | 14.8% |
| COc1ccc(S(=O)(=O)N2CCOCC2)cc1NC(=O)[C@@H]1CCCN1C(=O)c1cccs1 | 0.964% |
| COc1ccnc(N=CNOCc2ccc(Cl)cc2)c1C#N | 15% |
| Cc1ccc(-c2nc(=O)[nH]c3ccccc23)cc1 | 4.15% |
| O=C(Nc1cccc(/C=C/c2ccccn2)c1)c1ccc(-n2cncn2)c([N+](=O)[O-])c1 | -1.91% |
| CCOC(=O)C1=C(O)C(=O)N(c2ccc(S(N)(=O)=O)cc2)C1c1ccc(Br)cc1 (centres unmarked) | 6.14% |
| CN(C)CCCNC(=O)CC(c1ccc(F)cc1)c1ccco1 (centres unmarked) | -9.46% |
| O=C(O)C1CCC(N2C(=O)c3c(Cl)c(Cl)c(Cl)c(Cl)c3C2=O)CC1 (centres unmarked) | 10.2% |
| CCC(C)(C)NC(=O)CN(C(=O)CNS(=O)(=O)c1ccccc1)c1ccccc1 | 9.05% |
| Cc1ccc(OCC(=O)NCc2ccco2)cc1C | 5.85% |
| COc1ccc(C2=NO[C@@H]3C(=O)N(c4cccc(C)c4C)C(=O)[C@H]23)cc1OC | 7.43% |
| Cc1ccc(CC2C(=O)N(c3cc(C)ccc3C)C(=O)C2C)cc1 (centres unmarked) | 12.5% |
| COCCN(CCOC)C(=S)Nc1ccccc1 | 18.3% |
| Cc1ccccc1Nc1nc(N)nc(COC(=O)c2ccc(S(=O)(=O)N(C)C)cc2)n1 | 2.76% |

| Compound | hERG current change (%, negative = inhibition) at 1uM |
| --- | --- |
| CC1CCc2c(sc(NC(=O)c3c([N+](=O)[O-])cnn3C)c2C(N)=O)C1 (centres unmarked) | 11.7% |
| Cc1ccc(NC(=O)c2cc(S(=O)(=O)NCCC3=CCCCC3)ccc2F)cc1 | 5.01% |
| NNC(=O)CN1C(c2cccc(Cl)c2)=Nc2ccc(Br)cc2C1c1ccccc1 (centres unmarked) | -0.199% |
| Cc1cccc(-c2nnn(CC/C(N)=N/O)n2)c1 | 8.75% |
| O=C1CC(C(=O)N2CCC3(CC2)OCCO3)CN1CCc1ccccc1 (centres unmarked) | 13.1% |
| O=[N+]([O-])c1ccc(N2CCCCC2)cc1SCCO | 7.84% |
| Cc1cc(C)cc(OCC(=O)Nc2ccc(CN3CCCCC3)cc2)c1 | -4.82% |
| COc1ccc(-c2cn3cccnc3n2)cc1NC(=O)c1ccc(Br)o1 | 1.4% |
| Cc1ccc(NC(=O)N(Cc2cc3cc(C)cc(C)c3[nH]c2=O)CC2COCCO2)cc1 (centres unmarked) | 4.06% |
| Cc1ccc(-c2nc3cc(Br)cnc3nc2-c2ccc(C)cc2)cc1 | 9.6% |
| COc1ccc(-c2oc3ccccc3c(=O)c2OC(C)=O)cc1 | 7.41% |
| N#CC(c1ccc(Cl)cc1)c1nc2ccccc2nc1C(F)(F)F (centres unmarked) | 15.2% |
| COCCCNc1nc2c(c(=O)n(Cc3cccc(Br)c3)c(=O)n2C)n1C | 12.7% |
| COc1cccc(C(=O)NCC(c2ccco2)N2CCc3ccccc3C2)c1 (centres unmarked) | 7.01% |
| Cn1c(SCC(=O)Nc2ccc(F)cc2F)nnc1-c1cccnc1 | -6.16% |
| O=C(CSc1nnc(-c2cccnc2)n1Cc1ccccc1)NCc1ccco1 | 8.7% |
| COCCN(CC(=O)Nc1cccc(C)c1C)C(=O)c1cc(-c2cccs2)nn1-c1ccccc1 | 10.7% |
| O=C(O)CCS(=O)(=O)Cc1ccccc1Cl | 4.75% |
| Cc1nc2ccccc2c2c1CC(C(C)(Cl)Br)O2 (centres unmarked) | -25.1% |
| O=S(=O)(Cc1ccccc1)N1CCN(Cc2ccc(F)cc2Cl)CC1 | 7.32% |
| COc1ccc(NC(=O)COC(=O)C2CCC(C(C)(C)C)CC2)c([N+](=O)[O-])c1 (centres unmarked) | 18.2% |
| COc1cc(/C=N/NC(=O)/C(=C\c2ccc([N+](=O)[O-])cc2)NC(=O)c2ccccc2)cc(OC)c1O | 6.44% |
| Cc1ccc(OCCOCCN2CCN(C)CC2)c(C(C)(C)C)c1.O=C(O)C(=O)O | 13.2% |

| Compound | hERG current change (%, negative = inhibition) at 1uM |
| --- | --- |
| COc1ccc(CN2C(=O)NC(=O)/C(=C\c3ccco3)C2=O)cc1 | 22% |
| C=CCNC(=S)N1CCC(C(=O)c2ccc(F)cc2)CC1 | 5.26% |
| O=C(NCCS(=O)(=O)c1ccc(Br)cc1)c1ccc(F)cc1 | 11.1% |
| O=C(CCN1C(=O)/C(=C/c2ccccc2Cl)SC1=S)NCCCN1CCOCC1 | 7.34% |
| COc1ccc2c(c1OC)C(=O)N1c3ccccc3COC21 (centres unmarked) | 4.85% |
| CCCCC(=O)Nc1ccc(C2C(=O)c3ccccc3C2=O)cc1 | 10.9% |
| C=CCSc1nnc2nc3c(nn12)c1cc(C)ccc1n3CC=C | -33.5% |
| CCOc1ccc(C(=O)NC(=S)NCc2cccnc2)cc1[N+](=O)[O-] | 10% |
| COc1cc(NC(N)=S)c(OC)cc1Cl | 11.9% |
| CCOc1ccc(-c2nc(-c3ccccc3C)no2)cc1 | 10.9% |
| CCCCC(=O)Nc1nnc(CCc2ccccc2)s1 | 5.45% |
| CCCCCCOc1ccc(NC(=O)CC2C(=O)N(CC)C(=S)N2Cc2ccco2)cc1 (centres unmarked) | 14.2% |
| Cc1cc(OC(C)C(=O)NCC(O)c2ccccc2)c2c3c(c(=O)oc2c1)CCC3 (centres unmarked) | 4.63% |
| COc1cccc(/C=N/NC(=O)c2ccc(OCc3cccc(Br)c3)cc2)c1 | 6.59% |
| O=C(Cc1ccccc1)Nc1nnc(-c2ccco2)s1 | 7.55% |
| Cc1cc(C)c2c(N)c(C(=O)c3ccc(Cl)c(Cl)c3)sc2n1 | 12.8% |
| CCOc1ccccc1-c1nc2c(s1)CCc1onc(-c3ccc(OC)cc3)c1-2 | 9.28% |
| CC(C)(C)C(=O)[C@H]1[C@H](c2ccccc2)[C@@]2(N=C(c3ccccc3)OC2=O)C2c3ccccc3C=NN21 (some centres unmarked) | 16.8% |
| CC(C)(C)C(=O)CSc1ncnc2sc3c(c12)CCC3 | 1.18% |
| C#Cc1ccc(CN2CCN(CCCc3ccccc3)C(CCO)C2)cc1 (centres unmarked) | -14.1% |
